Read counts are not given, so values of variants with three or more changes are uncertain.
B1: CPEB3 Ribozyme (parent)
chain: UAACAGGGGGCCACAGCAGAAGCGUUCACGUCGCAGCCCCUGUCAGAUUCUGGUGAAUCUGCGAAUUCUGCUGUAUAUCUC

Variants of: B1
Experiment: self-cleavage, relative activity (ratio to wild type); higher = more cleavage; in vitro, sequencing
Method in brief: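 Barcoded CPEB3 ribozyme mutants, produced by rounds of error-prone PCR, self-cleaved while being transcribed with T7 RNA polymerase for 5 hours at 37°C and during a subsequent 15 min DNase I step before EDTA was added. Sequencing of template-switched cDNA on Illumina gave cleaved and total reads, and DNA sequencing assigned barcodes to variants. Each variant's relative activity is its cleaved/total read fraction divided by the unmutated ribozyme's fraction, averaged across three batches. A variant needed a minimum of 5 reads.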

| Variant | self-cleavage |
| --- | --- |
| A13U U25C U26C A47U U54C A56U A64G | 0.07 |
| A13U U25C U26C U58C | 0.33 |
| A13U U25C U26C U72A | 0.04 |
| A13U U25C U31C A35G | 0.29 |
| A13U U25C U31C A35G U54C | 0.22 |
| A13U U25C U31C U80A | 0.09 |
| A13U U25C U41C U69C | 0.06 |
| A13U U25C U49C | 0.07 |
| A13U U25C U49C A56G | 0.57 |
| A13U U25C U60C G63A A75U | 0.08 |
| A13U U25G A28G A57G | 0.23 |
| A13U U25G U54G U58C U67C U78C | 0.13 |
| A13U U26A C32U A56G U66C U76C U78C | 0.02 |
| A13U U26A C39U A56G | 0.2 |
| A13U U26A U48C | 0.42 |
| A13U U26C A28G U43A A64U | 0.06 |
| A13U U26C A35G A47G A64U U72A | 0.07 |
| A13U U26C A45U A65G | 0.07 |
| A13U U26C A56G U80C | 0.37 |
| A13U U26C A57G | 0.45 |
| A13U U26C A57G U69C U80C | 0.05 |
| A13U U26C C27A U31A C34G C40U U66C | 0.05 |
| A13U U26C C29U U41C U48C A56U | 0.15 |
| A13U U26C C29U U51C | 0.3 |

| Variant | self-cleavage |
| --- | --- |
| A13U U26C C32U A57G | 0.06 |
| A13U U26C C40A A56G | 0.29 |
| A13U U26C G33A | 0.23 |
| A13U U26C U31C U60C A75G | 0.14 |
| A13U U26C U41A A64U U72C | 0.06 |
| A13U U26C U60G | 0.18 |
| A13U U26C U69A | 0.13 |
| A13U U31A A35U U41A U43C U78C | 0.13 |
| A13U U31A A56C | 0.47 |
| A13U U31A C32A A35G A64G U74A A75U | 0.23 |
| A13U U31A U51A | 0.6 |
| A13U U31A U51G U76A | 0.88 |
| A13U U31A U69C U72A | 0.14 |
| A13U U31C A45U A77U | 0.44 |
| A13U U31C A56G G63C U78C | 0.94 |
| A13U U31C G46C | 0.34 |
| A13U U41A G52A | 0.34 |
| A13U U41C A45G U74C | 1.15 |
| A13U U41C A45G U78C | 1.19 |
| A13U U41C A47G A65U | 0.51 |
| A13U U41C U49C | 0.85 |
| A13U U41C U51A | 0.95 |
| A13U U41C U51C A57G U72A U76C | 0.34 |
| A13U U41C U54G | 0.95 |

| Variant | self-cleavage |
| --- | --- |
| A13U U41C U60C G70A U80A | 0.46 |
| A13U U43A A56U | 0.97 |
| A13U U43A U58C A64U | 0.23 |
| A13U U43A U67G U80C C81U | 0.7 |
| A13U U43A U69A | 1 |
| A13U U43A U72A C81U | 1.22 |
| A13U U43A U80C | 1.28 |
| A13U U43C C59U | 0.4 |
| A13U U43C U48C A56U U58C U69A U74C | 0.06 |
| A13U U43C U49C A56G A64U U66C U72C | 0.13 |
| A13U U43C U51C A64U U76C | 0.22 |
| A13U U43C U60A A64G | 0.26 |
| A13U U43C U60C | 0.1 |
| A13U U43C U72C U80G | 0.49 |
| A13U U48A G61C | 0.03 |
| A13U U48A U54C U76C | 0.4 |
| A13U U48C A56G U72C | 0.41 |
| A13U U48C U49C U67A U69C | 0.17 |
| A13U U48C U51C G61C | 0.16 |
| A13U U51A U60A A75U | 1.09 |
| A13U U51C A57G | 1.16 |
| A13U U51C A64U U66C | 0.44 |
| A13U U51C U60C | 0.38 |
| A13U U54A U60C | 0.66 |

| Variant | self-cleavage |
| --- | --- |
| A13U U54C A57G | 1.05 |
| A13U U54C A64U U78G | 0.36 |
| A13U U54C G70A | 0.26 |
| A13U U54C U66C A75G | 0.38 |
| A13U U58A U74C U80C | 0.5 |
| A13U U58A U78G | 0.46 |
| A13U U58C U80C | 0.57 |
| A13U U60C U66C C79U | 0.23 |
| A13U U60C U69C | 0.35 |
| A13U U60G U72C | 0.21 |
| A13U U66A U78A | 0.62 |
| A13U U66C C68A | 0.38 |
| A13U U67A C68U | 0.43 |
| A13U U67A C79A | 0.67 |
| A13U U67A U76C | 0.98 |
| A13U U67C A77G | 0.24 |
| A13U U67C U74A | 0.33 |
| A13U U69A U78C | 1.03 |
| A13U U69C U72C | 0.2 |
| A13U U69C U78C | 0.82 |
| A13U U72A U78A | 1.12 |
| A13U U72C U74A | 1.27 |
| C14A A15G A20G U49C A64G A77U | 0.19 |
| C14A A15G A45U U72A | 0.2 |

| Variant | self-cleavage |
| --- | --- |
| C14A A15G A47G A56G U60C | 0.33 |
| C14A A15G A64G | 1.26 |
| C14A A18U U43C U49A | 0.23 |
| C14A A20G C50A | 0.65 |
| C14A A20G G24A U80C | 0.4 |
| C14A A20G U49C U72C | 0.12 |
| C14A A21G C37A U80C | 0.33 |
| C14A A21U U25C U69G | 0.14 |
| C14A A28G A35U C38U U51C U66C | 0.05 |
| C14A A28U A47G A56G U69C | 0.19 |
| C14A A35G C37U A47G C59U U72C U80C | 1.3 |
| C14A A64G U80C | 1.23 |
| C14A A65G U74C | 0.95 |
| C14A C23A U26C U48C | 0.07 |
| C14A C23U U31G A64U | 0.15 |
| C14A C23U U60C A64U | 0.09 |
| C14A C32U A35U | 0.18 |
| C14A C38U U48A U51A U54A | 0.06 |
| C14A U25C U58C U60A U80A | 0.05 |
| C14A U25C U74C U80A | 0.33 |
| C14A U26G U49A U54C U74A | 0.1 |
| C14A U31C U51A A65G | 0.24 |
| C14A U41C G52A | 1.18 |
| C14A U41C U43G A45U | 0.04 |

| Variant | self-cleavage |
| --- | --- |
| C14A U51C U58C U66C | 0.17 |
| C14A U51C U74C | 1.2 |
| C14A U51G U58C U80A | 1.21 |
| C14A U54C A56U U60A | 0.15 |
| C14A U54C A64G | 0.37 |
| C14A U60C U67C | 0.35 |
| C14G A15G A18G C39U | 0.32 |
| C14G A21G U60C U66C U76A | 0.75 |
| C14G A21U A64U C68A | 0.15 |
| C14G C23G U31C G53A U58C | 0.13 |
| C14G C44U C50A U54A U69C | 0.07 |
| C14G C50A U67A | 0.52 |
| C14G G19A U76A U80A | 0.07 |
| C14G U48C A64G A65U | 0.29 |
| C14U A15C A20G U51A C62A U74C | 0.15 |
| C14U A15G A64C U67C | 0.25 |
| C14U A15U A28G U54A A57G | 0.54 |
| C14U A15U U54A A64G | 1.03 |
| C14U A18G A45U A64U | 0.15 |
| C14U A18G U41A U48C U60C U78C | 0.12 |
| C14U A18G U66C | 0.21 |
| C14U A18U G30U U67C | 0.08 |
| C14U A20C C32A A47U U54A U69A | 0.05 |
| C14U A20G A28U | 0.54 |

| Variant | self-cleavage |
| --- | --- |
| C14U A20U A45G | 0.22 |
| C14U A20U A56G | 0.11 |
| C14U A20U C62U | 0.13 |
| C14U A20U U54A | 0.15 |
| C14U A21G A57G U78C | 0.45 |
| C14U A21G C32A A56G U60C U66A | 0.02 |
| C14U A21G C34G A56G A65G A75G | 0.06 |
| C14U A28G U78G | 1 |
| C14U A35G U43C U48C U51C | 0.96 |
| C14U A45C U58C U78C | 0.11 |
| C14U A45G U74C | 1.06 |
| C14U C23G U41C U58C | 0.08 |
| C14U C29U C40U G70A U72G | 0.12 |
| C14U C44U C50U | 0.23 |
| C14U G16U A20C A65G U67A | 0.06 |
| C14U G24A A28G U41A A64C U78C | 0.07 |
| C14U G24C A35G A56G U67A U72C U76A | 0.07 |
| C14U G30A U41A | 0.08 |
| C14U G33C U43A | 0.24 |
| C14U G42C U48C A57G | 0.18 |
| C14U G46U U74C | 0.46 |
| C14U G55A A57U G73A | 1.08 |
| C14U G55U U78C | 1.24 |
